# This is one part of the list.
# What was measured:
# Test in all cases: glycan array binding signal (z-score within array); higher = stronger binding
# Settings in all cases: glycan notation: IUPAC condensed, linker removed
# GalNAc3S(b1-4)GlcNAc3S = molecular target: GalNAc3S(b1-4)GlcNAc3S
# Method in brief: (§1)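 The binding signal is a Z-score computed within each array. Data were drawn from 3228 arrays in the Consortium for Functional Glycomics database, restricted to those with a known protein sequence. Scores were averaged over arrays of the same protein sequence at different concentrations or buffers, and over linkers, and negative values can be taken as non-binding.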
# [1] = molecular target: GalNAc3S(b1-4)[Fuc(a1-3)]GlcNAc
# Method in brief: as §1
# GalNAc4S6S(b1-4)GlcNAc = molecular target: GalNAc4S6S(b1-4)GlcNAc
# Method in brief: as §1
# GalNAc6S(b1-4)GlcNAc = molecular target: GalNAc6S(b1-4)GlcNAc
# Method in brief: as §1
# Glc(a1-4)Glc = molecular target: Glc(a1-4)Glc
# Method in brief: as §1
# [2] = molecular target: Glc(a1-4)Glc(a1-4)Glc(a1-4)Glc
# Method in brief: as §1
# Glc(a1-6)Glc(a1-6)Glc = molecular target: Glc(a1-6)Glc(a1-6)Glc
# Method in brief: as §1
# [3] = molecular target: Glc(a1-6)Glc(a1-6)Glc(a1-6)Glc
# Method in brief: as §1
# Glc(b1-4)Glc = molecular target: Glc(b1-4)Glc
# Method in brief: as §1
# Glc(b1-6)Glc = molecular target: Glc(b1-6)Glc
# Method in brief: as §1
# GlcA(b1-3)Gal = molecular target: GlcA(b1-3)Gal
# Method in brief: as §1
# GlcA(b1-3)GlcNAc = molecular target: GlcA(b1-3)GlcNAc
# Method in brief: as §1
# GlcA(b1-6)Gal = molecular target: GlcA(b1-6)Gal
# Method in brief: as §1
# [4] = molecular target: GlcA3S(b1-3)Gal(b1-4)GlcNAc(b1-2)Man
# Method in brief: as §1
# [5] = molecular target: GlcA3S(b1-3)Gal(b1-4)GlcNAc(b1-3)Gal(b1-4)Glc
# Method in brief: as §1
# [6] = molecular target: GlcNAc(a1-3)Gal(b1-4)GlcNAc
# Method in brief: as §1
# [7] = molecular target: GlcNAc(a1-4)Gal(b1-3)GlcNAc
# Method in brief: as §1
# [8] = molecular target: GlcNAc(a1-4)Gal(b1-4)GalNAc
# Method in brief: as §1
# [9] = molecular target: GlcNAc(a1-4)Gal(b1-4)GlcNAc
# Method in brief: as §1
# [10] = molecular target: GlcNAc(a1-4)Gal(b1-4)GlcNAc(b1-3)Gal(b1-4)Glc
# Method in brief: as §1
# [11] = molecular target: GlcNAc(a1-4)Gal(b1-4)GlcNAc(b1-3)Gal(b1-4)GlcNAc
# Method in brief: as §1
# [12] = molecular target: GlcNAc(a1-4)Gal(b1-4)GlcNAc(b1-3)Gal(b1-4)GlcNAc(b1-3)Gal(b1-4)GlcNAc
# Method in brief: as §1
# [13] = molecular target: GlcNAc(a1-4)Gal(b1-4)GlcNAc(b1-3)Gal(b1-4)[Fuc(a1-3)]GlcNAc(b1-3)Gal(b1-4)[Fuc(a1-3)]GlcNAc
# Method in brief: as §1
# [14] = molecular target: GlcNAc(a1-6)Gal(b1-4)GlcNAc
# Method in brief: as §1
# [15] = molecular target: GlcNAc(b1-2)Gal(b1-3)GalNAc
# Method in brief: as §1
# [16] = molecular target: GlcNAc(b1-2)Man(a1-3)[GlcNAc(b1-2)Man(a1-6)]Man(b1-4)GlcNAc(b1-4)GlcNAc
# Method in brief: as §1
# [17] = molecular target: GlcNAc(b1-2)Man(a1-3)[GlcNAc(b1-2)Man(a1-6)]Man(b1-4)GlcNAc(b1-4)[Fuc(a1-6)]GlcNAc
# Method in brief: as §1
# [18] = molecular target: GlcNAc(b1-2)Man(a1-3)[GlcNAc(b1-4)][GlcNAc(b1-2)Man(a1-6)]Man(b1-4)GlcNAc(b1-4)GlcNAc
# Method in brief: as §1
# [19] = molecular target: GlcNAc(b1-2)Man(a1-3)[GlcNAc(b1-4)][GlcNAc(b1-2)Man(a1-6)]Man(b1-4)GlcNAc(b1-4)[Fuc(a1-6)]GlcNAc
# Method in brief: as §1
# [20] = molecular target: GlcNAc(b1-2)[GlcNAc(b1-4)]Man(a1-3)[GlcNAc(b1-2)Man(a1-6)]Man(b1-4)GlcNAc(b1-4)GlcNAc
# Method in brief: as §1
# [21] = molecular target: GlcNAc(b1-2)[GlcNAc(b1-4)]Man(a1-3)[GlcNAc(b1-4)][GlcNAc(b1-2)Man(a1-6)]Man(b1-4)GlcNAc(b1-4)GlcNAc
# Method in brief: as §1
# [22] = molecular target: GlcNAc(b1-2)[GlcNAc(b1-4)]Man(a1-3)[GlcNAc(b1-4)][GlcNAc(b1-2)[GlcNAc(b1-6)]Man(a1-6)]Man(b1-4)GlcNAc(b1-4)GlcNAc
# Method in brief: as §1
# [23] = molecular target: GlcNAc(b1-2)[GlcNAc(b1-4)]Man(a1-3)[GlcNAc(b1-4)][GlcNAc(b1-2)[GlcNAc(b1-6)]Man(a1-6)]Man(b1-4)GlcNAc(b1-4)[Fuc(a1-6)]GlcNAc
# Method in brief: as §1
# [24] = molecular target: GlcNAc(b1-2)[GlcNAc(b1-6)]Man(a1-6)[GlcNAc(b1-2)Man(a1-3)]Man(b1-4)GlcNAc(b1-4)GlcNAc
# Method in brief: as §1
# [25] = molecular target: GlcNAc(b1-2)[GlcNAc(b1-6)]Man(a1-6)[GlcNAc(b1-2)Man(a1-3)]Man(b1-4)GlcNAc(b1-4)[Fuc(a1-6)]GlcNAc
# Method in brief: as §1
# [26] = molecular target: GlcNAc(b1-2)[GlcNAc(b1-6)]Man(a1-6)[GlcNAc(b1-4)][GlcNAc(b1-2)Man(a1-3)]Man(b1-4)GlcNAc(b1-4)GlcNAc
# Method in brief: as §1
# GlcNAc(b1-3)Fuc = molecular target: GlcNAc(b1-3)Fuc
# Method in brief: as §1
# GlcNAc(b1-3)Gal = molecular target: GlcNAc(b1-3)Gal
# Method in brief: as §1
binder,measurement,setting,value
"Arath Fbox (Arabidopsis thaliana), NP_178341.1 (protein) EFTWGRKRRVKSESSPFDSFPEDCISYIISFTNPRDACVAATVSKTFESTVKSDIIWEKFLPADYESLIPPSRVFSSKKELYFSLCNDPVLFDDDKKSVWLEKASGKRCLMLSAMNLSIIWGDNPQYWQWIPIPESRFEKVAKLRDVCWFEIRGRTNTRVLSPRTRYSAYIVFKGVDKCYGFQNVAIEAAVGVVGQEPSRRLICFSEAIRRGRRNVVKPKQREDGWMEIELGEFFNDGGIMDNDEIEMSALETKQLNRKCGLIIQGIEIRPAKILAAAAASFLEQKLISEEDLNSAVDHHHHHH",glycan array binding signal (z-score),GalNAc3S(b1-4)GlcNAc3S,-0.704
same,glycan array binding signal (z-score),[1],-0.042
same,glycan array binding signal (z-score),GalNAc4S6S(b1-4)GlcNAc,-0.536
same,glycan array binding signal (z-score),GalNAc6S(b1-4)GlcNAc,-0.684
same,glycan array binding signal (z-score),Glc(a1-4)Glc,-0.735
same,glycan array binding signal (z-score),[2],-0.648
same,glycan array binding signal (z-score),Glc(a1-6)Glc(a1-6)Glc,-0.709
same,glycan array binding signal (z-score),[3],-0.455
same,glycan array binding signal (z-score),Glc(b1-4)Glc,-0.744
same,glycan array binding signal (z-score),Glc(b1-6)Glc,1.04
same,glycan array binding signal (z-score),GlcA(b1-3)Gal,-0.608
same,glycan array binding signal (z-score),GlcA(b1-3)GlcNAc,-0.382
same,glycan array binding signal (z-score),GlcA(b1-6)Gal,-0.582
same,glycan array binding signal (z-score),[4],-0.629
same,glycan array binding signal (z-score),[5],-0.618
same,glycan array binding signal (z-score),[6],-0.704
same,glycan array binding signal (z-score),[7],-0.319
same,glycan array binding signal (z-score),[8],-0.57
same,glycan array binding signal (z-score),[9],-0.728
same,glycan array binding signal (z-score),[10],-0.631
same,glycan array binding signal (z-score),[11],-0.783
same,glycan array binding signal (z-score),[12],-0.654
same,glycan array binding signal (z-score),[13],0.282
same,glycan array binding signal (z-score),[14],-0.537
same,glycan array binding signal (z-score),[15],-0.422
same,glycan array binding signal (z-score),[16],0.568
same,glycan array binding signal (z-score),[17],0.585
same,glycan array binding signal (z-score),[18],-0.729
same,glycan array binding signal (z-score),[19],-0.554
same,glycan array binding signal (z-score),[20],-0.742
same,glycan array binding signal (z-score),[21],-0.576
same,glycan array binding signal (z-score),[22],-0.398
same,glycan array binding signal (z-score),[23],-0.755
same,glycan array binding signal (z-score),[24],-0.389
same,glycan array binding signal (z-score),[25],-0.622
same,glycan array binding signal (z-score),[26],-0.608
same,glycan array binding signal (z-score),GlcNAc(b1-3)Fuc,-0.748
same,glycan array binding signal (z-score),GlcNAc(b1-3)Gal,-0.618
